# Results reported in article PMC9911399, “Two distinct binding modes provide the RNA-binding protein RbFox with extraordinary sequence specificity”.
# Where a chain is given by its changes, count along the chain named. The list shows a part of the results.
# T1: RBFOX1 RRM (Homo sapiens, UniProt Q9NWB1 109-208)
# T1 sequence: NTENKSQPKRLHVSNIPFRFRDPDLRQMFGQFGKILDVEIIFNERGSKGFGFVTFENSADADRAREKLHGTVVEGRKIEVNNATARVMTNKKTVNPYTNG
# B1: CGUCCUU (DNA:RNA)
# RNA: GGGAGACCGGAAUUCAGAUUGUCCCGUCCUUUUAAAUCCCGUCGUAGCCACCA
# DNA 1: CAATCTGAATTCCGGTCTCCC
# DNA 2: TGGTGGCTACGACGGGATT
# B2: ACCCCUU (DNA:RNA)
# RNA: B1 RNA with C25A, G26C, U27C
# DNA 1: CAATCTGAATTCCGGTCTCCC
# DNA 2: TGGTGGCTACGACGGGATT
# B3: GCGGGGA (DNA:RNA)
# RNA: GGGAGACCGGAAUUCAGAUUGUCCGCGGGGAUUAAAUCCCGUCGUAGCCACCA
# DNA 1: CAATCTGAATTCCGGTCTCCC
# DNA 2: TGGTGGCTACGACGGGATT
# B4: GUUCUAG (DNA:RNA)
# RNA: B1 RNA with C25G, G26U, C29U, U30A, U31G
# DNA 1: CAATCTGAATTCCGGTCTCCC
# DNA 2: TGGTGGCTACGACGGGATT
# B5: CGUUCAC (DNA:RNA)
# RNA: B1 RNA with C28U, U30A, U31C
# DNA 1: CAATCTGAATTCCGGTCTCCC
# DNA 2: TGGTGGCTACGACGGGATT
# B6: UACUCAU (DNA:RNA)
# RNA: B1 RNA with C25U, G26A, U27C, C28U, U30A
# DNA 1: CAATCTGAATTCCGGTCTCCC
# DNA 2: TGGTGGCTACGACGGGATT
# B7: CCCUCCU (DNA:RNA)
# RNA: B1 RNA with G26C, U27C, C28U, U30C
# DNA 1: CAATCTGAATTCCGGTCTCCC
# DNA 2: TGGTGGCTACGACGGGATT
# B8: ACGAACG (DNA:RNA)
# RNA: B3 RNA with G25A, G28A, G29A, G30C, A31G
# DNA 1: CAATCTGAATTCCGGTCTCCC
# DNA 2: TGGTGGCTACGACGGGATT
# B9: AUACGAU (DNA:RNA)
# RNA: B1 RNA with C25A, G26U, U27A, C29G, U30A
# DNA 1: CAATCTGAATTCCGGTCTCCC
# DNA 2: TGGTGGCTACGACGGGATT
# B10: GACACUA (DNA:RNA)
# RNA: B1 RNA with C25G, G26A, U27C, C28A, U31A
# DNA 1: CAATCTGAATTCCGGTCTCCC
# DNA 2: TGGTGGCTACGACGGGATT
# B11: UGCUACU (DNA:RNA)
# RNA: B1 RNA with C25U, U27C, C28U, C29A, U30C
# DNA 1: CAATCTGAATTCCGGTCTCCC
# DNA 2: TGGTGGCTACGACGGGATT
# B12: CGUUCCA (DNA:RNA)
# RNA: B1 RNA with C28U, U30C, U31A
# DNA 1: CAATCTGAATTCCGGTCTCCC
# DNA 2: TGGTGGCTACGACGGGATT
# B13: CCGAAAU (DNA:RNA)
# RNA: B1 RNA with G26C, U27G, C28A, C29A, U30A
# DNA 1: CAATCTGAATTCCGGTCTCCC
# DNA 2: TGGTGGCTACGACGGGATT
# B14: UUAGUUG (DNA:RNA)
# RNA: B1 RNA with C25U, G26U, U27A, C28G, C29U, U31G
# DNA 1: CAATCTGAATTCCGGTCTCCC
# DNA 2: TGGTGGCTACGACGGGATT
# B15: CGAACGC (DNA:RNA)
# RNA: B1 RNA with U27A, C28A, U30G, U31C
# DNA 1: CAATCTGAATTCCGGTCTCCC
# DNA 2: TGGTGGCTACGACGGGATT
# B16: UAUCUGG (DNA:RNA)
# RNA: B1 RNA with C25U, G26A, C29U, U30G, U31G
# DNA 1: CAATCTGAATTCCGGTCTCCC
# DNA 2: TGGTGGCTACGACGGGATT
# B17: CCAAUGA (DNA:RNA)
# RNA: B3 RNA with G25C, G27A, G28A, G29U
# DNA 1: CAATCTGAATTCCGGTCTCCC
# DNA 2: TGGTGGCTACGACGGGATT
# B18: CCUUAGG (DNA:RNA)
# RNA: B1 RNA with G26C, C28U, C29A, U30G, U31G
# DNA 1: CAATCTGAATTCCGGTCTCCC
# DNA 2: TGGTGGCTACGACGGGATT
# B19: ACAUUGC (DNA:RNA)
# RNA: B3 RNA with G25A, G27A, G28U, G29U, A31C
# DNA 1: CAATCTGAATTCCGGTCTCCC
# DNA 2: TGGTGGCTACGACGGGATT
# B20: GCCAUUU (DNA:RNA)
# RNA: B1 RNA with C25G, G26C, U27C, C28A, C29U
# DNA 1: CAATCTGAATTCCGGTCTCCC
# DNA 2: TGGTGGCTACGACGGGATT
# B21: GCACAUU (DNA:RNA)
# RNA: B1 RNA with C25G, G26C, U27A, C29A
# DNA 1: CAATCTGAATTCCGGTCTCCC
# DNA 2: TGGTGGCTACGACGGGATT
# B22: UCUUAAG (DNA:RNA)
# RNA: B1 RNA with C25U, G26C, C28U, C29A, U30A, U31G
# DNA 1: CAATCTGAATTCCGGTCTCCC
# DNA 2: TGGTGGCTACGACGGGATT
# B23: CCGCAAA (DNA:RNA)
# RNA: B3 RNA with G25C, G28C, G29A, G30A
# DNA 1: CAATCTGAATTCCGGTCTCCC
# DNA 2: TGGTGGCTACGACGGGATT
# B24: GGUUUCA (DNA:RNA)
# RNA: B1 RNA with C25G, C28U, C29U, U30C, U31A
# DNA 1: CAATCTGAATTCCGGTCTCCC
# DNA 2: TGGTGGCTACGACGGGATT
# B25: CUCAUUU (DNA:RNA)
# RNA: B1 RNA with G26U, U27C, C28A, C29U
# DNA 1: CAATCTGAATTCCGGTCTCCC
# DNA 2: TGGTGGCTACGACGGGATT
# B26: CGAGUGA (DNA:RNA)
# RNA: B3 RNA with G25C, C26G, G27A, G29U
# DNA 1: CAATCTGAATTCCGGTCTCCC
# DNA 2: TGGTGGCTACGACGGGATT
# B27: ACGUUAA (DNA:RNA)
# RNA: B3 RNA with G25A, G28U, G29U, G30A
# DNA 1: CAATCTGAATTCCGGTCTCCC
# DNA 2: TGGTGGCTACGACGGGATT
# B28: UGAUUAU (DNA:RNA)
# RNA: B1 RNA with C25U, U27A, C28U, C29U, U30A
# DNA 1: CAATCTGAATTCCGGTCTCCC
# DNA 2: TGGTGGCTACGACGGGATT
# B29: UGUAGGG (DNA:RNA)
# RNA: B1 RNA with C25U, C28A, C29G, U30G, U31G
# DNA 1: CAATCTGAATTCCGGTCTCCC
# DNA 2: TGGTGGCTACGACGGGATT
# B30: AUUGCCA (DNA:RNA)
# RNA: B1 RNA with C25A, G26U, C28G, U30C, U31A
# DNA 1: CAATCTGAATTCCGGTCTCCC
# DNA 2: TGGTGGCTACGACGGGATT
# B31: CGCCACU (DNA:RNA)
# RNA: B1 RNA with U27C, C29A, U30C
# DNA 1: CAATCTGAATTCCGGTCTCCC
# DNA 2: TGGTGGCTACGACGGGATT
# Target: T1, RBFOX1 RRM
# Assay: EMSA; HiTS-Eq, 1 nM pool, 10 min; buffer printed only for the single-RNA assays: 10 mM Tris pH 7.5, 150 mM NaCl, 3.4 mM EDTA, 0.001% NP-40, 30 C
# Conditions: tags: His6 N-terminal (pET28a); label: 5' 32P
# Summary of the method: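 These values rest on relative association constants, computed from read-count changes of each RNA species versus the control reaction and normalised to the cognate motif. Reads came from free RNA recovered by 8% native PAGE after purified RbFox RRM (wild type or mutant) at increasing concentrations was equilibrated for 10 min in 50 µL with 1 nM of a 5′-radiolabelled pool with 7 randomized nucleotides and DNA-annealed flanks.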
row,Binder,binding signal
1,B1,0.00594 KA relative to UGCAUGU
2,B2,0.00262 KA relative to UGCAUGU
3,B3,0.0289 KA relative to UGCAUGU
4,B4,0.0139 KA relative to UGCAUGU
5,B5,0.00842 KA relative to UGCAUGU
6,B6,0.00412 KA relative to UGCAUGU
7,B7,0.000455 KA relative to UGCAUGU
8,B8,0.0126 KA relative to UGCAUGU
9,B9,0.00313 KA relative to UGCAUGU
10,B10,0.00229 KA relative to UGCAUGU
11,B11,0.0158 KA relative to UGCAUGU
12,B12,0.00538 KA relative to UGCAUGU
13,B13,0.00341 KA relative to UGCAUGU
14,B14,0.0187 KA relative to UGCAUGU
15,B15,0.00967 KA relative to UGCAUGU
16,B16,0.0133 KA relative to UGCAUGU

row,Binder,binding signal
1,B17,0.00546 KA relative to UGCAUGU
2,B18,0.0112 KA relative to UGCAUGU
3,B19,0.00632 KA relative to UGCAUGU
4,B20,0.0041 KA relative to UGCAUGU
5,B21,0.00696 KA relative to UGCAUGU
6,B22,0.0106 KA relative to UGCAUGU
7,B23,0.00567 KA relative to UGCAUGU
8,B24,0.0118 KA relative to UGCAUGU
9,B25,0.0047 KA relative to UGCAUGU
10,B26,0.0193 KA relative to UGCAUGU
11,B27,0.00196 KA relative to UGCAUGU
12,B28,0.0128 KA relative to UGCAUGU
13,B29,0.00963 KA relative to UGCAUGU
14,B30,0.00578 KA relative to UGCAUGU
15,B31,0.00292 KA relative to UGCAUGU
